Source: paper PMC4402527
Positions count from the first letter of the chain named. Results are given in words; binding and its absence hold for the method and conditions named. Binding seen in cells or lysates may run through a third protein. Some entries that bind do so weakly or less than the wild type. Sequences can lack the tags named with a protein.

Chains of the proteins cited; added tags and fusions are not shown.
UniProt P60842: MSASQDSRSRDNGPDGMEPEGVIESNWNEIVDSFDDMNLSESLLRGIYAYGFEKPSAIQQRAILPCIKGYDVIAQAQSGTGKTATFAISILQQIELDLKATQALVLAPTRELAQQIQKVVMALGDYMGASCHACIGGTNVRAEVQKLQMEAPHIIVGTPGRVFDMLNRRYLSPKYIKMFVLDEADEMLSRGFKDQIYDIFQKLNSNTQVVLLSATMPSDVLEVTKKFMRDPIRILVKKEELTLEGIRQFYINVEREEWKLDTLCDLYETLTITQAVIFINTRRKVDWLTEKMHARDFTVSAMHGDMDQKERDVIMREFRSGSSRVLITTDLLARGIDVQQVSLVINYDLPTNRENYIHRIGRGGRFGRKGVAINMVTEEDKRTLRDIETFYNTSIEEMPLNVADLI
UniProt P55884: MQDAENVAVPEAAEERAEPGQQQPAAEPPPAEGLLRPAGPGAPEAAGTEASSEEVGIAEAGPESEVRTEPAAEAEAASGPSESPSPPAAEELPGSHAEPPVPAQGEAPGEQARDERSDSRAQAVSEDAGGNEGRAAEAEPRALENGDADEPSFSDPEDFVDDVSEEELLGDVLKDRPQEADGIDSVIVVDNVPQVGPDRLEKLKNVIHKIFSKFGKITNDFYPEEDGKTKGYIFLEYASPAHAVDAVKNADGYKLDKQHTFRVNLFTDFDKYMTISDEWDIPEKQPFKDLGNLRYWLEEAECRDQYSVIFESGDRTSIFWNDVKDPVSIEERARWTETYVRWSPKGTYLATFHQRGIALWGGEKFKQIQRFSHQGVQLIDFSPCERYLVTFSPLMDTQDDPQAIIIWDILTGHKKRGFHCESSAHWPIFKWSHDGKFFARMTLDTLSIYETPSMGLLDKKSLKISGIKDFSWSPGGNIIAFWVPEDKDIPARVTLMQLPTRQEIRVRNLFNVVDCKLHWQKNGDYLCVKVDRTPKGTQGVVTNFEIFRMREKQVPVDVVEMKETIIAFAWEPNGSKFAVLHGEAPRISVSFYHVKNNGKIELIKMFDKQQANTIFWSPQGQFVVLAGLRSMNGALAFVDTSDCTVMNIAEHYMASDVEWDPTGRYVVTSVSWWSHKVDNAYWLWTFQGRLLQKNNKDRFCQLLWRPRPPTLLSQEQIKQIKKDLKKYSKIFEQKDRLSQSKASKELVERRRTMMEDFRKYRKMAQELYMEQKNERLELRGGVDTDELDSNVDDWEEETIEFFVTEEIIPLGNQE

How the values were obtained:
Experiment in all cases: co-IP; HEK293T transfected 24 h with Flag-tagged DAP5 constructs; lysis in buffer B (20 mM HEPES-KOH pH 7.6, 100 mM KCl, 0.5 mM EDTA, 0.4% NP-40, 20% glycerol); anti-Flag-conjugated beads, elution with Flag peptide; western blot of endogenous factors
[1] = target: T1, Flag-DAP5 (wild type) (human) (UniProt P78344)
T1 sequence: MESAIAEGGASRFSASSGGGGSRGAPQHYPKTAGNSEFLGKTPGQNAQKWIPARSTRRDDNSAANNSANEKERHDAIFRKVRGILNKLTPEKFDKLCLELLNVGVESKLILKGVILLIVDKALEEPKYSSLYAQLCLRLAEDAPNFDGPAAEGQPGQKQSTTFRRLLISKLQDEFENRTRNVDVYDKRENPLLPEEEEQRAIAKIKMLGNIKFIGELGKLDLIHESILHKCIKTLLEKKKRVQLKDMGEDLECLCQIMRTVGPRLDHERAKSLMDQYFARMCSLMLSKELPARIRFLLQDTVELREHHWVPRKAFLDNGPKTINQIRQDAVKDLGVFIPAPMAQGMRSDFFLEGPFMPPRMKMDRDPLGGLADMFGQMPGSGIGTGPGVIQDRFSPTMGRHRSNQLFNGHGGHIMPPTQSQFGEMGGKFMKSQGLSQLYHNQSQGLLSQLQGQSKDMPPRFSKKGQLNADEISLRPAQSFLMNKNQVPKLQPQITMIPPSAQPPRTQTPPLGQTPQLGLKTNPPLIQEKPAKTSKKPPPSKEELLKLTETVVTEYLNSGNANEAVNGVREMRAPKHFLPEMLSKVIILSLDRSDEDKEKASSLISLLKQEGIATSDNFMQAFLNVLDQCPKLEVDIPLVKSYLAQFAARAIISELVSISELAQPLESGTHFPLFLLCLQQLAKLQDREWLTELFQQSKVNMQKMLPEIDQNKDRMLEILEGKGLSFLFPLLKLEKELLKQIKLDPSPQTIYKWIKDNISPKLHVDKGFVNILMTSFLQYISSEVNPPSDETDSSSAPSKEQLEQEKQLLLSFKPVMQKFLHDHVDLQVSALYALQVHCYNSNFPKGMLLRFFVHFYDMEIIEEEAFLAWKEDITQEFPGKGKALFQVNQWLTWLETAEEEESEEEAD

Flag-DAP5 N86A (human) = target: T2, Flag-DAP5 N86A (human) (UniProt P78344)
T2 sequence: T1 sequence with N86A

Flag-DAP5 E862K (human) = target: T3, Flag-DAP5 E862K (human) (UniProt P78344)
T3 sequence: T1 sequence with E862K

Row | binding [1] | binding (Flag-DAP5 N86A (human)) | binding (Flag-DAP5 E862K (human)) | Substance
1 | binds | no binding | binds | eIF4AI (from UniProt P60842 1-406)
2 | binds | binds | binds | eIF3S9 (from UniProt P55884 1-814)
